The RNAGym collection of RNA variant scans (doi:10.7554/elife.90254)
Read counts are not given, so values of variants with three or more changes are uncertain.

B1: LINE1-full (parent)
chain: UACGUAGGUGGUUUUCCCCUGAUAGUGCUAAGGGGGCCUGGAAGUUUGGACUGGGCAGAGCUCAACACAGCGUGGCAAAGUGGCUGUGGCUAGACUGCCUCUCUGGAUUCCUCGUCACUCAGCAGGGCAUCUCUGAGAGAAAUGCC

Variants of: B1
Assay: self-cleavage, relative activity (ratio to wild type); higher = more cleavage; in vitro, sequencing; the parent is a self-cleaving ribozyme

For C101U U119C A140G, which self-cleavage is on record?
Its self-cleavage is 1.89.

Which self-cleavage does the source give for A77G U87A A117G here?
Its self-cleavage is 0.06.

For A50G A57G A69G U81A U132C, which self-cleavage is on record?
Its self-cleavage is 0.

For U12C G36C A64G U96A U112A, which self-cleavage is on record?
Its self-cleavage is 0.06.

With U23C G35A U46C U47C as the variant, how does the self-cleavage read?
Its self-cleavage is 1.41.

Which self-cleavage does the source give for A59U A69G G114A A117G here?
The self-cleavage was 0.15.

For U52C A67G A141G, which self-cleavage is on record?
The self-cleavage was 0.

For G49A A67G A69U, which self-cleavage is on record?
Its self-cleavage is 0.

With A59G C68U G86A A94G A129C as the variant, how does the self-cleavage read?
The self-cleavage was 0.05.

With U15C U20A U47A U134C as the variant, how does the self-cleavage read?
The self-cleavage was 0.98.

For A50G A107G A129U, which self-cleavage is on record?
The self-cleavage was 0.92.

With C68U A79G A92G as the variant, how does the self-cleavage read?
The self-cleavage was 0.1.

For A22U U96C U102C U104C, which self-cleavage is on record?
The self-cleavage was 1.31.

With U52C G105A U112C C146U as the variant, how does the self-cleavage read?
Its self-cleavage is 0.94.

Which self-cleavage does the source give for U9C G53C U85C U119C A140U here?
Its self-cleavage is 0.43.

For A30G U52C A77U U91C, which self-cleavage is on record?
Its self-cleavage is 0.84.

For U47A A64G C76U U115C A124G, which self-cleavage is on record?
The self-cleavage was 0.2.

With A22G U62G A69U G144A as the variant, how does the self-cleavage read?
The self-cleavage was 0.

For U9C C37G U85C, which self-cleavage is on record?
The self-cleavage was 0.25.

With C3A U15C U112C A124G A142G as the variant, how does the self-cleavage read?
Its self-cleavage is 0.

For U15C U46A G83A C145U, which self-cleavage is on record?
The self-cleavage was 0.54.

For U20C U109C A121U, which self-cleavage is on record?
Its self-cleavage is 1.28.

With G54U C71U U81C U85A as the variant, how does the self-cleavage read?
The self-cleavage was 0.03.

With U23C A42U A64U A65G A69U as the variant, how does the self-cleavage read?
The self-cleavage was 0.17.

With U12G G25A G27A C76U C131A as the variant, how does the self-cleavage read?
Its self-cleavage is 1.16.

With A42G U52A U87A C131A as the variant, how does the self-cleavage read?
The self-cleavage was 0.14.

With A59G U96C U109A as the variant, how does the self-cleavage read?
The self-cleavage was 0.

For U13C A67G C95A, which self-cleavage is on record?
Its self-cleavage is 0.1.

With U15C A64G G114A as the variant, how does the self-cleavage read?
Its self-cleavage is 0.27.

For U14C U81A A124G A141G C146U, which self-cleavage is on record?
Its self-cleavage is 2.19.

For U13C U134A A136G, which self-cleavage is on record?
The self-cleavage was 1.58.

For U87C U104C A107G, which self-cleavage is on record?
Its self-cleavage is 0.63.

For U20C U45C A57G, which self-cleavage is on record?
The self-cleavage was 0.5.

With G25A A78G A129U as the variant, how does the self-cleavage read?
Its self-cleavage is 1.16.

With U15A A57G U85A as the variant, how does the self-cleavage read?
The self-cleavage was 0.06.

With C19U U52A A117C as the variant, how does the self-cleavage read?
Its self-cleavage is 1.69.

Which self-cleavage does the source give for C3A U20A A141G here?
Its self-cleavage is 0.97.

Which self-cleavage does the source give for U1A U9A U100C here?
The self-cleavage was 1.25.

Which self-cleavage does the source give for A78G A117U A129G A140G here?
Its self-cleavage is 1.05.

For U14A U39A U47C C56U, which self-cleavage is on record?
Its self-cleavage is 0.22.

With U20C U104A U115A as the variant, how does the self-cleavage read?
The self-cleavage was 1.37.

For U1C A43G A78U A124U A140U C145U, which self-cleavage is on record?
Its self-cleavage is 1.34.

Which self-cleavage does the source give for A30U A64U U73C A79G A117G here?
Its self-cleavage is 0.

For G7A A77G U134C, which self-cleavage is on record?
The self-cleavage was 1.52.

For G35C A65G A79G, which self-cleavage is on record?
The self-cleavage was 0.

For U15C U20C A57U U102C, which self-cleavage is on record?
The self-cleavage was 0.09.

With U26G A79G U96A as the variant, how does the self-cleavage read?
Its self-cleavage is 0.14.

Which self-cleavage does the source give for U12G A31G A65G here?
Its self-cleavage is 0.51.

With A65G U108A U132A as the variant, how does the self-cleavage read?
The self-cleavage was 0.1.

Which self-cleavage does the source give for U23C C90A U115A here?
Its self-cleavage is 0.02.

Which self-cleavage does the source give for G88A A107U U132C here?
Its self-cleavage is 0.04.

For U47A A57U A79G U109C, which self-cleavage is on record?
The self-cleavage was 0.08.

Which self-cleavage does the source give for A67G A77G C128U A136G A138U here?
Its self-cleavage is 0.61.

For U5C A43G A64U U81A, which self-cleavage is on record?
The self-cleavage was 1.15.

For U26A A94C U130C, which self-cleavage is on record?
Its self-cleavage is 0.04.

For C113U U115A U143C, which self-cleavage is on record?
The self-cleavage was 1.49.

Which self-cleavage does the source give for U45C U85A U115C A138U here?
The self-cleavage was 0.12.

With U20A G35A U119C as the variant, how does the self-cleavage read?
Its self-cleavage is 1.08.

For A6G U47C G74A, which self-cleavage is on record?
The self-cleavage was 0.71.

With U62C U91A U100A A140G as the variant, how does the self-cleavage read?
Its self-cleavage is 0.

For U81C A121U A124G, which self-cleavage is on record?
Its self-cleavage is 1.41.

Which self-cleavage does the source give for U45C A138G A142G here?
The self-cleavage was 0.75.

For A31G U39C G114A, which self-cleavage is on record?
The self-cleavage was 1.49.

With A22G C128G A138G as the variant, how does the self-cleavage read?
The self-cleavage was 1.34.

Which self-cleavage does the source give for A77G U91C U100C here?
The self-cleavage was 1.02.

With U12C U46C A50G C56U A64G as the variant, how does the self-cleavage read?
The self-cleavage was 0.

Which self-cleavage does the source give for U13C G70A A94G A107G here?
The self-cleavage was 0.1.

Which self-cleavage does the source give for U15A A43G A138G here?
The self-cleavage was 1.71.

For A77G C84U U102C, which self-cleavage is on record?
The self-cleavage was 0.21.

With U9A A22G U132A as the variant, how does the self-cleavage read?
Its self-cleavage is 0.75.

For U26C U115C A136G, which self-cleavage is on record?
Its self-cleavage is 0.71.

Which self-cleavage does the source give for U12A A24U U26A U62C G106U here?
Its self-cleavage is 0.09.

With U23G G40A U96A as the variant, how does the self-cleavage read?
The self-cleavage was 0.07.

Which self-cleavage does the source give for G27A G36C A142G here?
Its self-cleavage is 1.09.

With G44U U47C U62C A78G A136G as the variant, how does the self-cleavage read?
The self-cleavage was 0.25.

For U5A U26C U52G C61U A69G A79C, which self-cleavage is on record?
The self-cleavage was 0.

Which self-cleavage does the source give for U12C U52A A121U A129U U134C A141G here?
The self-cleavage was 1.66.

For A43U A117G U143C, which self-cleavage is on record?
Its self-cleavage is 0.92.

Which self-cleavage does the source give for A64G A107G U115C here?
The self-cleavage was 0.69.

With G7A U62C A138G as the variant, how does the self-cleavage read?
The self-cleavage was 0.02.

For U5A U12C C99A, which self-cleavage is on record?
The self-cleavage was 0.39.

For G82A U112C A117G, which self-cleavage is on record?
The self-cleavage was 1.49.

With U9C U14C A57U A64U C76U A92C A117G as the variant, how does the self-cleavage read?
The self-cleavage was 0.14.
